# Data published in PubChem BioAssay AID651820 (National Center for Advancing Translational Sciences (NCATS), 2012).
# In all, about 340,000 compounds went through this assay and about 12,000 (3.5%) were called active. Inconclusive means that the source gave no clear call. Such entries were picked first, then a sample of the others. The call rests on the fitted dose curve; in most records, active means well fitted inhibition curve with a large enough effect; inconclusive means small, poorly fitted or top-dose-only effect, or another doubt; inactive means no such curve, though single readings can be large or run the other way. Potencies of inconclusive entries are left out as doubtful fits.
# Assay: qHTS Assay for Inhibitors of Hepatitis C Virus (HCV)
# Conditions: Huh7.5.1 HCVcc-Cre (HCVcc is cell-culture hepatitis C virus) infection, luciferase reporter, 44 h; activity change, negative = inhibition: at 41.8 µM (top of the series) unless noted
# Description: Hepatitis C virus (HCV) infects about 200 million people in the world. Many infected people progress to chronic liver disease including cirrhosis with a risk of developing liver cancer. To date, there is no effective vaccine for hepatitis C. Current therapy based on interferon is only effective in about half of the patients and is associated with significant adverse effects. The fraction of people with HCV who can complete a successful treatment is estimated to be no more than 10 percent. Recent development of direct-acting antivirals against HCV, such as protease and polymerase inhibitors, is promising but still requires combination with peginterferon and ribavirin for maximal efficacy. In addition, these agents are associated with high rate of resistance and many have significant side effects. Due to the lack of a culture system for infectious HCV, the search for new HCV drugs has been greatly hampered. […] High-throughput screening (HTS) with an infectious HCV system would cover the complete spectrum of potentially druggable targets in all stages of HCV lifecycle, and would have more biological relevance than other cell-based assays. Moreover, targeting several key processes in the viral life cycle may not only increase antiviral efficacy; more importantly, it may also reduce the capacity of the virus to develop resistance to the compound. The goal of this project is to identify novel HCV inhibitors as new therapies for hepatitis C, using a highly sensitive and specific assay platform which is based on a HCV infectious cell culture system established in the laboratory and adapted for high-throughput HCV drug screen. NIH Chemical Genomics Center [NCGC] NIH Molecular Libraries Probe Centers Network [MLPCN] MLPCN Grant: MH095511 Assay Submitter (PI): Jake Liang, NIDDK
# The assay will start with plating 1,000 cells/well in 3 µL volume and culture for 4 h. Then 23 nL of compounds from the library collection will be added to each well, followed by adding 2.5 µL of HCVcc-Cre virus (~ 0.5 moi) and further cultured for 44 h before the luciferase assay. A volume of 4.5 µL luciferase substrates will be added to each well and the plates will be incubated at room temperature for 15 min. and then read for 15 sec. for the luciferase activity
# On the % scale 0 is the no-effect control and ±100 the full control effect; tags describe the fitted curve by direction and shape.
Compound,"activity change, negative = inhibition",Potency
CCCCn1nc(NC(=O)CCC)c2cc3cc(OC)ccc3nc21,inactive: -1.08%,
O=C(/C=C/c1ccc(Cl)c(Cl)c1)Nc1cccnc1,,"inconclusive [inhibitor, partial curve]"
COc1ccccc1N1CCN(CC(=O)Nc2ccc(Cl)c(C(F)(F)F)c2)CC1,,"inconclusive [inhibitor, single point]"
O=C(COc1ccccc1)Nc1nc(-c2ccc(S(=O)(=O)N3CCOCC3)cc2)cs1,,"inconclusive [inhibitor, partial curve]"
Cc1cc2n(n1)C(c1ccc(N(C)C)cc1)Nc1ccccc1-2 (stereo unspecified),,"inconclusive [inhibitor, single point]"
Cn1nc(C(=O)NCC2CCCO2)c2ccccc2c1=O (stereo unspecified),inactive: 21.3%,
CC(C)C1CC(CCN)(Cc2ccccc2)CCO1 (stereo unspecified),,"inconclusive [inhibitor, single point]"
NS(=O)(=O)c1ccc(NC(=O)c2ccc(S(=O)(=O)N3CCc4ccccc43)cc2)cc1,,"inconclusive [inhibitor, single point]"
CCN1CCN(c2cc(C)c3cc(NC(=S)N4CCC5(CC4)OCCO5)ccc3n2)CC1,inconclusive: -63.7% [inhibitor],
CCN(CC)S(=O)(=O)c1ccc(N2CC(C(=O)N3Cc4ccccc4CC3C(N)=O)CC2=O)cc1 (stereo unspecified),,"inconclusive [inhibitor, single point]"
CC1Sc2ccc(S(=O)(=O)N3CCC(C(=O)NCc4ccccc4)CC3)cc2NC1=O (stereo unspecified),,"inconclusive [inhibitor, single point]"
COc1ccc(OC)c(C2NC(=O)N(C)C(C)=C2C(=O)OCc2ccccc2)c1 (stereo unspecified),inactive: -10.8%,
CCc1cc(=O)oc2cc(C)cc(OCC(=O)NCc3ccccn3)c12,inactive: -17.7%,
O=C(CCl)N(Cc1cc(=O)[nH]c2ccccc12)c1ccccc1,,"inconclusive [inhibitor, single point]"
Cc1ccc(-c2[nH]ncc2/C=N/n2c(COc3ccccc3C)nc3ccccc3c2=O)cc1,,"inconclusive [inhibitor, single point]"
COC(=O)C1=C(C(=O)OC)[C@]2([C@H]3CC=CCN[C@@H](Cc4ccccc4)C(=O)N3Cc3ccccc3)C=C[C@H]1O2,,"inconclusive [inhibitor, single point]"
CCC(=O)N1CCN(c2ccc(NC(=O)c3ccccc3)cc2)CC1,inactive: 3.03%,
CC(C(N)=O)N1c2cccc3cccc(c23)S1(=O)=O (stereo unspecified),,"inconclusive [inhibitor, single point]"
N#Cc1nc(COc2ccc(F)cc2)oc1NCCCn1ccnc1,inactive: -5.26%,
Cc1cccc(N2CC(C(=O)O)CC2=O)c1C (stereo unspecified),inactive: 36%,
COc1ccc2c(C(=O)CCl)c[nH]c2c1,,"inconclusive [inhibitor, single point]"
CCOC(=O)CSc1c(-c2ccccc2)c2cc(Cl)ccc2[nH]c1=O,inactive: -7.52%,
CN(C(=O)c1cccc(NC(=O)Cc2ccc(NC(=O)C3CCN(C(=O)C4CCC4)CC3)cc2)c1)C1CCCC1,,"inconclusive [inhibitor, single point]"
COc1nc(/C(N)=N/O)nc(N2CCCCC2)n1,inactive: 2.19%,
O=C(O)CN1C(=O)c2ccc(Oc3ccc4c(c3)C(=O)N(CC(=O)O)C4=O)cc2C1=O,inactive: 22.1%,
Cc1nc2ccccc2n1Cc1ccccc1,,"inconclusive [inhibitor, single point]"

Compound,"activity change, negative = inhibition",Potency
CCN(CC)c1ccc(NC(=O)c2ccc(=O)[nH]c2)cc1S(=O)(=O)Nc1ccccc1OC,,active: 22.4 µM
COCCNc1oc(COc2cccc(C)c2)nc1C#N,,"inconclusive [inhibitor, partial curve]"
CCC(c1ccc(O)c(O)c1)C(CC)c1ccc(O)c(O)c1 (stereo unspecified),,active: 12.6 µM
c1ccc(C(=NNc2nc3ccccc3s2)c2ccccn2)cc1,,active: 1.58 µM
O=C(CN(C(=O)CNC(=O)c1ccco1)c1ccc(Cl)c(Cl)c1)NC1CCCCC1,,"inconclusive [inhibitor, partial curve]"
CC[C@]1(C(=O)OC)[C@H]2C(=O)N(Cc3ccccc3)C(=O)[C@H]2[C@H]2CN=C(SCC3CC3)N21,,"inconclusive [inhibitor, single point]"
COC(=O)C1CCN(C(=O)COC(=O)C2CCN(S(=O)(=O)c3c(Cl)cccc3Cl)CC2)CC1,inactive: 16.6%,
Cc1cc(C)c2sc(N(CCN(C)C)C(=O)CCS(=O)(=O)c3ccccc3)nc2c1,inactive: 7.35%,
COc1ccccc1CNC(=O)CCNC(=O)c1ccco1,,"inconclusive [inhibitor, full curve]"
O=C(CCl)N=c1sccn1Cc1ccccc1Cl,,active: 0.562 µM
CCOC(=O)c1csc(-c2ccc(OC)c(OC)c2)n1,,"inconclusive [inhibitor, single point]"
C=CC[n+]1c(-c2ccc(OC)c(OC)c2)csc1NNC(=O)Nc1ccccc1,,active: 3.98 µM
O=C(N/N=C/c1ccc(O)cc1)Nc1cccc2nsnc12,,"inconclusive [inhibitor, partial curve]"
Clc1cccc(N=C2NN=C(c3ccc4c(c3)OCCO4)CS2)c1,,"inconclusive [inhibitor, partial curve]"
O=C(Cn1ncc2c([nH]c3ccccc32)c1=O)N1CCCCC1,inactive: 12.2%,
CCN(CC(=O)Nc1cc(Cl)ccc1C)C(=O)CCS(=O)(=O)c1ccc(Cl)cc1,,"inconclusive [inhibitor, single point]"
O=C(NC1CCCCCC1)C1CCC(=O)N(Cc2ccccc2F)C1 (stereo unspecified),inactive: 27.7%,
Clc1ccccc1OCc1nc(-c2ccc(Br)o2)no1,inactive: -18.9%,
CC1CCN(Cc2c(C(=O)N/N=C/c3cc(Cl)ccc3O)nnn2-c2nonc2N)CC1,,active: 10 µM
CC(=O)c1ccc(N2CCN(c3ccc(C(F)(F)F)cn3)CC2)cc1,,"inconclusive [inhibitor, single point]"
O=C(Cc1cccs1)N1CCCC(c2nc(-c3ccc(S(=O)(=O)N4CCCC4)cc3)no2)C1 (stereo unspecified),,"inconclusive [inhibitor, partial curve, poor fit]"
COCCCC1CCN(Cc2nc(-c3ccccc3)no2)CC1,inactive: -5.02%,
Oc1ccc(/C=N/Nc2cc(N3CCOCC3)nc(N3CCOCC3)n2)cc1O,,"inconclusive [inhibitor, partial curve]"
COC(=O)c1ccccc1S(=O)(=O)NNC(=O)C1COc2ccccc2O1 (stereo unspecified),,"inconclusive [inhibitor, single point]"
CC(=O)Nc1c(Cl)cnn(-c2ccccc2)c1=O,,"inconclusive [inhibitor, single point]"
COc1cc(C)c(NC(=O)COc2ccc3c(c2)CCC3)cc1OC,,"inconclusive [inhibitor, single point]"

Compound,"activity change, negative = inhibition",Potency
COc1cc(/C=N/N=C(\N)c2nonc2N)ccc1O,inactive: -21.4%,
C[C@H](N)c1nnc(SCC(N)=O)o1,inactive: 11.2%,
Cc1ccccc1C1c2[nH]c3ccccc3c2CCN1Cc1cccn1-c1ncccn1 (stereo unspecified),,"inconclusive [inhibitor, single point]"
COCc1c(C(=O)OCC(=O)N2c3ccccc3NC(=O)C2(C)C)oc2ccccc12,,"inconclusive [inhibitor, partial curve]"
O=Cc1ccc(-c2cccs2)s1,inactive: -0.0236%,
Cc1cc(Cl)cc(Cl)c1OCCOc1cccc2cccnc12,,"inconclusive [inhibitor, single point]"
COc1ccc(N(C(=O)c2snc(C(N)=O)c2N)C(C(=O)NC2CCCC2)c2ccc(F)cc2)c(OC)c1 (stereo unspecified),,active: 11.2 µM
CCCc1cc(=O)[nH]c(SCC(=O)N2CCOCC2)n1,inactive: 2.05%,
O=C(NC1CCCCC1)NC12CC3CC(CC(C3)C1)C2,inactive: 1.61%,
CCOc1ccc(S(=O)(=O)Nc2ccc(C(=O)N/N=C/c3c(C)nn(-c4ccccc4)c3N3CCCC3)cc2)cc1,,"inconclusive [inhibitor, partial curve]"
CC(C)Cn1c(-c2csc3c2CCCC3)n[nH]c1=S,inactive: 1.63%,
CCN(CC)S(=O)(=O)c1ccc(OCC(=O)NCc2ccccc2)cc1,inactive: -0.177%,
FC(F)(F)c1ccccc1NC(=S)N1CCN(Cc2ccc3c(c2)OCO3)CC1,,"inconclusive [inhibitor, single point]"
O=C(NCC(=O)N1CCN(c2ccccc2F)CC1)c1ccc(Br)o1,inactive: 20.2%,
O=C(/C=C/c1ccc([N+](=O)[O-])cc1)Nc1cccc(C(=O)Nc2ccccc2C(=O)O)c1,inactive: -9.63%,
O=C(CN1CCN(Cc2ccc3c(c2)OCO3)CC1)Nc1cc(S(=O)(=O)N2CCCC2)ccc1Cl,,active: 6.31 µM
O=C(CNC(=O)c1ccco1)NCc1ccc2c(c1)OCO2,inactive: 11.5%,
O=C(Cc1ccccc1)N/N=C/c1ccc([N+](=O)[O-])s1,,active: 11.2 µM
COc1ccc(C(=O)Nc2ccc(OCc3ccccc3)cc2)cc1[N+](=O)[O-],,"inconclusive [inhibitor, partial curve]"
c1csc(-c2nnc(N3CCCCCC3)c3ccccc23)c1,inactive: -8.4%,
CCn1cc(C(=O)N[C@H](C(=O)NCCO)C(C)C)c(=O)c2cc3c(cc21)OCO3,inactive: 17.3%,
CCOC(=O)C(Cc1ccnc2ccccc12)=NO,,"inconclusive [inhibitor, single point]"
COc1ccc(NC2CCCN(C(=O)c3ccccc3C(F)(F)F)C2)cc1 (stereo unspecified),inactive: 2.76%,
COC(=O)c1cn(-c2ccccc2)nc1-c1ccc(OC)cc1,,active: 12.6 µM
